Measurements as given in PubChem BioAssay AID1347073 (National Center for Advancing Translational Sciences (NCATS), 2019).
Hit rate of the full screen: of about 45,000 compounds, about 200 (0.44%) were called active. Inconclusive results (about 7%) are left out. Calls follow the shape of the dose curve; as a rule, active = well fitted activation curve with a large enough effect; inconclusive = small, poorly fitted or top-dose-only effect; inactive = no such curve, though single readings can be large or run the other way. This is one part of the list.

Experiment: qHTS of TDP-43 Inhibitors: NCGC Sytravon Library Screen; also: nearly all actives have a fitted effect of over 55% in size; as to growth rescue (activation): 0% is about no effect
Settings: yeast TDP-43 toxicity rescue, BacTiter-Glo growth, 24 h; series mostly up to 46.1 µM; growth rescue (activation): at the top concentration
In short: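 TDP-43-expressing yeast, pregrown in raffinose, seeded at OD600 0.02 in galactose medium with compound for 24 hr at 30 deg C. Growth read by BacTiter-Glo luminescence, so rescue of toxicity appears as activation.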
Potency is read from the fitted curve at half-maximal effect.

Structure (SMILES) | growth rescue (activation) | Potency
O=C(COC(=O)CCc1nc2ccccc2c(=O)[nH]1)NC(=O)NC1CCCC1 | inactive: -22% | –
COc1ccc(-n2c(SC)nc3sc4c(c3c2=O)CCN(C)C4)cc1 | inactive: -7.76% | –
CC(C)NC(=O)c1cc(C2CCCCN2S(=O)(=O)c2ccccc2)on1 (stereo unspecified) | inactive: 5.84% | –
CCC(C)NC(=O)Cn1cc(S(=O)(=O)N2CCN(c3ccccc3F)CC2)c2ccccc2c1=O (stereo unspecified) | inactive: 5.21% | –
CCN(CC)S(=O)(=O)c1ccc(NS(=O)(=O)c2ccc(O)c([N+](=O)[O-])c2)cc1 | inactive: -5.15% | –
OCC1(CCc2ccccc2)CCN(Cc2ccc(OC(F)F)cc2)CC1 | inactive: 4.17% | –
CCOc1cc(S(=O)(=O)NCc2cccnc2)c(C)cc1C | inactive: 14.1% | –
c1ccc2oc(-c3ccc(Nc4nc(N5CCOCC5)nc(N5CCOCC5)n4)cc3)nc2c1 | inactive: 5.59% | –
Cc1cccc2cc(CN(CCCO)C(=O)Nc3ccc(Cl)cc3)c(=O)[nH]c12 | inactive: 25.6% | –
COc1ccc(S(=O)(=O)N(C)c2ccc(C(=O)N3CCN(C)CC3)cc2)cc1 | inactive: 2.75% | –
COC(=O)c1sccc1NC(=O)c1ccccc1[N+](=O)[O-] | inactive: 33.9% | –
Cc1cccc(NC(=O)CN2CCN(CC(=O)Nc3ccc(-c4ccccc4)cc3)CC2)c1C | inactive: 12.1% | –
O=C(Cn1c(=O)c2sccc2n(CC(=O)Nc2ccc(Cl)cc2Cl)c1=O)NCCc1ccccc1 | inactive: 0.441% | –
COc1ccc(NC(=O)CCC(=O)Nc2cc(OC)c(NC(=O)c3ccco3)cc2OC)c(OC)c1 | inactive: 6.19% | –
COc1ccc(NC(=O)c2ccc(-n3cnnn3)cc2)c([N+](=O)[O-])c1 | inactive: 1.69% | –
CCCCCCCCOC(=O)C(NC(=O)CCC(=O)Nc1ccc(S(N)(=O)=O)cc1)C(O)c1ccccc1 (stereo unspecified) | inactive: 10.1% | –
CC(NC(=O)NCc1cccnc1)(C(F)(F)F)C(F)(F)F | inactive: -26.7% | –
CCOC(=O)Cc1csc(N/N=C/c2cccc([N+](=O)[O-])c2)n1 | inactive: -4.79% | –
C/C(=N\NS(=O)(=O)c1ccc(C)cc1)c1ccc(C)o1 | inactive: 10.7% | –
COc1ccc(C(=O)OCC(=O)Nc2ccc([N+](=O)[O-])cc2OC)c(O)c1 | inactive: 10.4% | –
N#Cc1ccsc1NC(=O)CCN1CCN(C(c2ccccc2)c2ccccc2)CC1 | inactive: -42.4% | –
COCCNC(=O)NC(=O)COC(=O)C1(c2ccc(Cl)cc2)CC1 | inactive: 3.53% | –
CCNC(=O)C1(C)CCCN(C(=O)c2ccc3ccccc3n2)C1 (stereo unspecified) | inactive: -13.1% | –
COc1cc(NC(=O)CN2CCC(Cc3ccccc3)CC2)c(C)cc1[N+](=O)[O-] | inactive: -6.56% | –
Cc1cc(C(=O)CN2C(=O)C(=O)N(C)C2=O)c(C)n1-c1cccc(S(=O)(=O)N2CCOCC2)c1 | inactive: 24.2% | –
CCOc1cc(/C=N/Nc2ncc(C)c(=O)[nH]2)ccc1O | inactive: -0.445% | –

Structure (SMILES) | growth rescue (activation) | Potency
O=C(CSc1nnnn1Cc1ccccc1)c1ccccc1F | inactive: 23.4% | –
COc1cc(C)ccc1N(CCCN1C(=O)c2cccc3cccc(c23)C1=O)C(=O)c1cccs1 | inactive: -11.3% | –
Cc1ccccc1C(=O)NCCNC(=O)c1ccccn1 | inactive: -9.96% | –
COc1ccccc1N1C(=O)C2C(C(=O)c3ccccc3)=NN(c3ccc(Br)cc3)C2C1=O (stereo unspecified) | inactive: -11.5% | –
CCNc1oc(COc2ccccc2F)nc1C#N | inactive: 36.1% | –
CCn1c(SCC(=O)Nc2ccc(OC)cc2OC)nc2nc3c(cc2c1=O)COC(C)(C)C3 | inactive: -2.96% | –
Cc1ccc(S(=O)(=O)N(CCC(=O)Nc2ccc(OC(F)(F)F)cc2)c2ccccc2)cc1 | inactive: -21.5% | –
Cc1nn(C)c(C)c1CN(C(=O)CCc1nnc(Cc2c[nH]c3ccccc23)o1)C(C)C | inactive: 8.68% | –
COc1ccccc1-c1cn(C(C)(C)C)nc1C | – | active: 11.2 µM
O=C(Nc1ccc(-c2ccc([N+](=O)[O-])cc2)cc1)c1ccccc1F | inactive: 1.42% | –
FC(F)C(F)(F)Oc1cccc(Nc2nccn3c(-c4cccc5ccccc45)cnc23)c1 | inactive: 3.44% | –
COc1ccc(CC(=O)Nc2cccc3ccccc23)cc1OC | inactive: 13.3% | –
CCCN(CCC)C(=O)c1ccc2c(c1)N(CC)C(=O)c1ccccc1S2(=O)=O | inactive: 5.8% | –
CCC(C)N(C(=O)CSc1nncn1C)C1CCS(=O)(=O)C1 (stereo unspecified) | inactive: 4.07% | –
Cc1ccc(S(=O)(=O)C2(C(=O)N3CCN(c4ccccc4F)CC3)CC2)cc1 | inactive: -0.908% | –
O=C(CCc1nnc(Cc2c[nH]c3ccccc23)o1)NCC1CC12CCCCC2 (stereo unspecified) | inactive: 4.77% | –
O=S1(=O)N=C(Nc2ccc(N3CCOCC3)c(Cl)c2)c2ccccc21 | inactive: -5.29% | –
CCN(CC(=O)NCc1ccc(F)cc1)C(=O)c1ccc(C(=O)c2ccccc2)cc1 | inactive: 14.2% | –
CCOC(=O)c1ccc(N2C(=O)C3CC=C(C)CC3C2=O)cc1 (stereo unspecified) | inactive: 24.6% | –
COC(=O)c1ccccc1NC(=S)N(Cc1ccc2c(c1)OCO2)Cc1cc2ccc(C)cc2[nH]c1=O | inactive: 15.2% | –
NC(=O)c1ccc(OCC(=O)N2CCNC2=O)cc1 | inactive: 6.51% | –
COc1ccccc1NC(=O)CC1CCCC1 | inactive: 19% | –
Cc1ccc(NC(=O)c2ccc(OC(F)(F)F)cc2)cc1S(=O)(=O)N(C)C | inactive: 20.8% | –
CC1CN(C(=O)c2ccc(COc3ccccc3Br)o2)CC(C)O1 (stereo unspecified) | inactive: 24.5% | –
COc1ccc(CSc2nnc(-c3ccncc3)n2C)cc1F | inactive: 12.3% | –
